# Among all 310,000 compounds or so, about 14,000 (4.5%) showed an effect of 50% or more. The effect is printed as a negative number. Some of the results follow.
# Biological target: human ether-à-go-go-related gene (hERG) potassium channel (human, UniProt Q12809)
# Test: primary screen, population patch clamp on CHO cells stably expressing hERG
# 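Note: peak tail current of the secondary pulse compared with the same well before compound.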
# Sequence of human ether-à-go-go-related gene (hERG) potassium channel (Q12809 whole entry, looked up): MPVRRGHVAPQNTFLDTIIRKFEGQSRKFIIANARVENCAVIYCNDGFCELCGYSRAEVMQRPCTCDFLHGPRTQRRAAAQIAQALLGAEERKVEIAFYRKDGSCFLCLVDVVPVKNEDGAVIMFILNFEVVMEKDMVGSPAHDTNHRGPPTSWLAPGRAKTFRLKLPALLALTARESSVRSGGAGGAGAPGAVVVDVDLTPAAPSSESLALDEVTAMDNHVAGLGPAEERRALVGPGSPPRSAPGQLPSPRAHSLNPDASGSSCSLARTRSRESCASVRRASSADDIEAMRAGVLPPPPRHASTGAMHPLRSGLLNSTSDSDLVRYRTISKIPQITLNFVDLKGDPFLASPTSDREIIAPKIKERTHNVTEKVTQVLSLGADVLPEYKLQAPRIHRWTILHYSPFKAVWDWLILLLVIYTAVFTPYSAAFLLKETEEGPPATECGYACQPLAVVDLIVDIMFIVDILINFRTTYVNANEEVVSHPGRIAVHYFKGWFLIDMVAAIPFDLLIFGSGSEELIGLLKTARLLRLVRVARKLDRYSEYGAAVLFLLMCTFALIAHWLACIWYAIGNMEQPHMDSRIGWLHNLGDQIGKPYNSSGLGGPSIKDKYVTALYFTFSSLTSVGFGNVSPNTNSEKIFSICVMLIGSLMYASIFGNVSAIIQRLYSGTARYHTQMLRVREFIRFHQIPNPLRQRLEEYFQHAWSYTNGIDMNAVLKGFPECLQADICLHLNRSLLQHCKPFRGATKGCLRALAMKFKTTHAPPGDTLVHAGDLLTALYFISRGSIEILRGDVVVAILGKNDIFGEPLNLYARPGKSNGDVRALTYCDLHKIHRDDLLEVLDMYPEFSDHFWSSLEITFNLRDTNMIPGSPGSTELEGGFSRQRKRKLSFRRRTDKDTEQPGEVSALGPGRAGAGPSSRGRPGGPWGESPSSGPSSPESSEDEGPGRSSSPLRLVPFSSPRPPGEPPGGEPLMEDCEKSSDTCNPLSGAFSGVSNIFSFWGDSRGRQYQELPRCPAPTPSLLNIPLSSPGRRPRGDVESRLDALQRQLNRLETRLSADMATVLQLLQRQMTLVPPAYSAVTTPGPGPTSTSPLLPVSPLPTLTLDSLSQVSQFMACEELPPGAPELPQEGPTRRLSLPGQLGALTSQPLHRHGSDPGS
row,SMILES,"hERG current change (%, negative = inhibition) at 10uM [%]"
1,COc1ccc(CNC(=O)/C=C/c2cc([N+](=O)[O-])ccc2OC(F)F)cc1,15.3
2,CS(=O)(=O)Nc1ccc(-c2cn3c(n2)SCC3)cc1,3.65
3,CCCOc1ccc(C(C)=O)cc1CC(C(N)=O)C(N)=O,14.9
4,O=C(O)c1ccc(Cl)c2c1C1C=CCC1C(c1ccccn1)N2 (stereo not shown),7.76
5,COc1ccccc1CNC(=O)c1cccc(NC(=O)c2ccccc2)c1,-10.9
6,COc1ccc(-c2nnc(SCC(=O)c3cc(C)n(Cc4cccs4)c3C)o2)cc1,5.36
7,CCOc1ccc(NS(=O)(=O)c2ccc(OCC(=O)N3CCCC3)cc2)cc1,-4.33
8,Cc1ccc(NC(=O)N2CCN(C)CC2)cc1NC(=O)N1CCN(C)CC1,3.03
9,Cc1cc(C(C)(C)C)cc(C)c1COC(=O)CN1C(=O)NC2(CCCC2)C1=O,12.2
10,Cc1ccccc1S(=O)(=O)NNC(=O)C(=O)NNc1ccccn1,9.71
11,Cc1cccc(NC(=O)CC2C(=O)NC3CCCCC3N2C(=O)c2ccccc2Cl)c1 (stereo not shown),8.54
12,COC(=O)c1nnn(-c2nc(N(C)C)nc(N(C)C)n2)c1C,-7.53
13,O=C1CSC(c2cccc([N+](=O)[O-])c2)N1C1CC2CCC1C2 (stereo not shown),-15.7
14,CCOc1ccccc1NC(=O)COC(=O)CCOc1cc(C)ccc1C,14.8
15,NC(=S)NC1CC2CC1C1C=CCC21 (stereo not shown),6.66
16,CCN1CCN(c2cc(C)c3cc(NC(=O)c4cc(OC)cc(OC)c4)ccc3n2)CC1,-35.6
17,Cc1cccc(OCC2=N/C(=C\N(C)C)C(=O)O2)c1,4.15
18,Cc1cccc(NC(=O)CCc2ccc(S(=O)(=O)NC3CCCCC3)cc2)c1,14.4
19,CCOCCCNC(=O)CC1Oc2ccc(C)cc2NC1=O (stereo not shown),-2.59
20,CCc1ccc(CN2CCC(C(=O)Nc3ccc(-n4nc(C)cc4C)cc3)CC2)o1,-46.1
21,Cc1cccc(C)c1-n1c(C)cc(/C=C2\NC(=O)NC2=O)c1C,-21.7
22,COc1cc(/C=C/C(=O)N2CCOCC2)ccc1OCc1ccccc1,-8.45
23,CSc1ccc(NC(=O)N2CCC(C(=O)c3ccc(F)cc3)CC2)cc1,-40.9
24,Cc1cc(=O)[nH]c(N/N=C/c2c(C)nn(-c3ccccc3)c2Cl)n1,-2.96
25,CCNC(=O)C(=O)NCc1ccncc1,7.61

# Source: article PMC4336329 (PLoS ONE, 2015)
